This assay addresses 59-amino acid synthetic peptide comprising the full length SBP tag. The assay can be described thus: SPR (BIAcoreX), SBP peptide thiol-coupled to the chip. For orientation: Surface plasmon resonance follows binding to a sensor surface in real time, without labels.

Chain of 59-amino acid synthetic peptide comprising the full length SBP tag (peptide, as listed by the source): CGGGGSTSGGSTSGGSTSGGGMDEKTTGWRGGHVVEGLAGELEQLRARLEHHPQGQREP

By Kd is commonly meant the constant that tells how readily two partners part at equilibrium. The low end stands for a tighter complex, the high end for a looser complex. As a reminder, the koff is the first-order rate constant of dissociation. High values mean a short-lived complex, low ones a long-lived complex. In general, kon refers to the rate constant with which the complex forms. A high value points to fast association. Substance “streptavidin mutein SBPM18 (S27A, G48T) (no sequence given) (designed binder)” gave a Kd of 7.67 nM, a koff of 0.000821 s⁻¹ and a kon of 107000 M⁻¹ s⁻¹.

For the origin of these results see patent US20140378657A1.
